# Data: publication PMC4336329 (PLoS ONE, 2015)
# Hit rate of the full screen: of about 310,000 compounds, about 2,200 (0.71%) showed an effect of 50% or more. The effect is printed as a negative number. The list shows a part of the results.
# Target: human ether-à-go-go-related gene (hERG) potassium channel (human, UniProt Q12809)
# Experiment: primary screen, population patch clamp on CHO cells stably expressing hERG
# human ether-à-go-go-related gene (hERG) potassium channel, sequence (Q12809 whole entry, looked up): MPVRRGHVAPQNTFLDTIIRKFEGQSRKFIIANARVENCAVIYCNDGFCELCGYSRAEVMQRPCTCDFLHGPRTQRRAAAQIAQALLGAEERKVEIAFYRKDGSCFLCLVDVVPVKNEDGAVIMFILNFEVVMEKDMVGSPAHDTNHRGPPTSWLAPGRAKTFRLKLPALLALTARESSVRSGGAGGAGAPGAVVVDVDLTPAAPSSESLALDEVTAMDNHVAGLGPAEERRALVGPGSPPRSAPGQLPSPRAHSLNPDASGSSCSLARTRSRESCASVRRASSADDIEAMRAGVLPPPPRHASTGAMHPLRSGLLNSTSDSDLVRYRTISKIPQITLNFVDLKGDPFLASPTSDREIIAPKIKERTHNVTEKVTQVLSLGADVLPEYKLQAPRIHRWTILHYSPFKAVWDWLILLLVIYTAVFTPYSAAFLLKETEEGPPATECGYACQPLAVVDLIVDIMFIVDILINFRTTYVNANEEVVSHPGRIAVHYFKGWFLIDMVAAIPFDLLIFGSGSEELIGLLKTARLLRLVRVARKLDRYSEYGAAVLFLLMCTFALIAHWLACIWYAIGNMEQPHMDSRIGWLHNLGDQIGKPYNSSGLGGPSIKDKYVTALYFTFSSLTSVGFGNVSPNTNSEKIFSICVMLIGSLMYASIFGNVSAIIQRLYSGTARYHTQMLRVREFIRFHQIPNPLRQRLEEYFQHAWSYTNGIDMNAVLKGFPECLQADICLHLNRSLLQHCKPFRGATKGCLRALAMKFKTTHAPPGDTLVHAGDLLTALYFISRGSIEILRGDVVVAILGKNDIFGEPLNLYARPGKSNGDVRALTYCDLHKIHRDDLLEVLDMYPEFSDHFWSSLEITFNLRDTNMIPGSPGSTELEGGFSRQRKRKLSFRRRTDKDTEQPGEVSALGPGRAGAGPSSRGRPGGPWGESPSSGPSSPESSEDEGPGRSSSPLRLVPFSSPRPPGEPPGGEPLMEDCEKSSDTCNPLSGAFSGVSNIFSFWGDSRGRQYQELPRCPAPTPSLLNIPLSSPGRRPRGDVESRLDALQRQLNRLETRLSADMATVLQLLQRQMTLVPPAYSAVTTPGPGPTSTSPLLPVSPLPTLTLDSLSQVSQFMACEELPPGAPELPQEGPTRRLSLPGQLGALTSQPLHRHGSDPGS
row,Structure (SMILES),"hERG current change (%, negative = inhibition) at 1uM"
1,COc1ccc(-c2cnnc(N/N=C/c3ccc(O)c(OC)c3)n2)cc1,-12.8%
2,CC(C)SCCCOc1ccc(C(C)(C)C)cc1,13%
3,O=C(CSc1nc2ccccc2c(=O)n1Cc1ccc(F)cc1)NCc1cccs1,2.36%
4,Cc1noc(C)c1COC(=O)c1cc2c(C)nn(-c3ccc(F)cc3)c2s1,9.23%
5,COc1ccc(S(=O)(=O)N2CCCCC2)cc1NC(=O)CN1CCN(C(C)=O)CC1,4.05%
6,C#CCOCCOCCOCCNc1nc(N2CCN(C(=O)[C@H]([C@@H](C)CC)n3cc(CCCC[NH3+])nn3)CC2)nc(N2CCN(C(=O)[C@H]([C@@H](C)CC)n3cc(CCC[NH+]=C(N)N)nn3)CC2)n1.[Cl-],10.3%
7,O=C1OC(C(=O)Nc2nccs2)Cc2ccccc21 (centres unmarked),9.74%
8,O=C1C2C3C=CC(CC3)C2C(=O)N1c1ccccc1F (centres unmarked),14.5%
9,O=[N+]([O-])c1cccnc1N1CCCCC1,7.05%
10,O=C(c1c(F)cccc1F)N1CCC(O)(c2cccnc2)CC1,9.09%
11,O=Cc1ccccc1OCCCOc1cccc2cccnc12,8.66%
12,Cn1c(SCc2ccc(F)cc2)nnc1-c1ccccn1,11.1%
13,CCCOC1CCCN(C(=O)CCc2nnc(-c3ccc4c(c3)OCO4)o2)C1 (centres unmarked),19.9%
14,CC(NC(=O)c1ccco1)c1nc(-c2ccccc2Cl)no1 (centres unmarked),8.16%
15,O=C(NS(=O)(=O)Oc1ccc(F)cc1F)OC[C@@H]1CCCN2CCCCC12 (some centres unmarked),17.3%
16,CC(C)Nc1cc(C(F)(F)F)nc(-c2ccccn2)n1,4.87%
17,CC[C@H](C)C(C(=O)N1CCN(C(=O)OC(C)(C)C)CC1)n1cc(C(Cc2ccc(O)cc2)NC(=O)OC(C)(C)C)nn1 (some centres unmarked),9.57%
18,COc1ccccc1NC(=O)C(C)N1CCN(C/C=C/c2ccccc2)CC1 (centres unmarked),-75.2%
19,O=c1[nH]c(=S)n(C2CC2)c(O)c1C=NCCN1CCOCC1,14.5%

row,Structure (SMILES),"hERG current change (%, negative = inhibition) at 1uM"
1,CCOc1cc(N2CCOCC2)c(OCC)cc1NC(=O)COC(=O)[C@H](Cc1c[nH]c2ccccc12)NC(C)=O,4.98%
2,O=S(=O)(c1ccc(Br)cc1)N1CCN=C1SCc1cccc(F)c1,10.9%
3,COc1cc(OC)c(C2=NOC(C(=O)N3CCc4ccccc4C3)C2)cc1Cl (centres unmarked),-13.7%
4,CN(C(=O)COC(=O)c1cccc(S(=O)(=O)N(C)c2ccccc2)c1)C1CCCCC1,8.94%
5,COc1cc(C(=S)N2CCN(C(c3ccccc3)c3ccccc3)CC2)cc(OC)c1O,17%
6,Cc1ccc(/C(N)=N/OC(=O)C(C)c2ccc([N+](=O)[O-])cc2)cc1 (centres unmarked),10.6%
7,CCCCc1ccc(/C=C2\C(=O)ON=C2c2ccccc2)s1,3.78%
8,CCCCC(C(=O)OCC(=O)c1ccc(OC)cc1)N1C(=O)c2ccccc2C1=O (centres unmarked),14.5%
9,COc1cccc(NS(=O)(=O)c2ccc3[nH]cc(C(=O)NCCCOC(C)C)c(=O)c3c2)c1,9.42%
10,C/C(CC1(O)C(=O)Nc2ccccc21)=N\O (centres unmarked),24%
11,COc1ccc(S(=O)(=O)NCCc2nnc3ccc(SCC(=O)Nc4nc(C)cs4)nn23)cc1,14.9%
12,Cc1ccccc1-c1noc(C(C)NC(=O)c2ccco2)n1 (centres unmarked),13.6%
13,CC(C)(C)c1cc(NC(=O)c2cccs2)no1,7.63%
14,CCn1c(CC(=O)Nc2ccccc2C)nnc1SCC(=O)Nc1nncs1,16.1%
15,C=CCNC(=O)c1ccc2nc(Cc3ccc(OC)cc3)oc2c1,12.1%
16,Cc1ccc(Nc2cc(C)nc3ccccc23)c(C)c1,-1.59%
17,COc1ccc(NC(=O)Cn2ncn3nc(-c4ccc(OC)cc4)cc3c2=O)cc1,30.1%
18,CN1CC(=O)N(CC(=O)NCc2ccc(F)cc2)c2ccccc2C1=O,12.8%
19,COc1ccc(C(=O)NCCCN=C2NS(=O)(=O)c3ccccc32)cc1,10.2%

row,Structure (SMILES),"hERG current change (%, negative = inhibition) at 1uM"
1,COc1ccc(C(=O)NNC(=O)c2cc3cccc(OC)c3oc2=O)cc1,12.8%
2,O=C(NCCOc1ccccc1)C1Nc2ccc(OC(F)(F)F)cc2C2C=CCC12 (centres unmarked),0.456%
3,Cc1[nH]n(-c2ccccc2)c(=O)c1C(=O)c1cccc(F)c1,12.3%
4,CCC(C)(C)NC(=O)C(c1ccc(C)cc1)N(Cc1cccnc1)C(=O)c1csnn1 (centres unmarked),3.13%
5,COc1cc([N+](=O)[O-])ccc1NC(=O)Nc1ccc2c(c1)OCCO2,0.174%
6,O=C(NCc1ccco1)Nc1ccc(Br)cc1Cl,-18.5%
7,CC(=O)NCCc1csc(-c2ccccc2)n1,18.1%
8,CCN(CC)c1ccc(S(=O)(=O)N2CCOCC2)cc1NS(C)(=O)=O,11.4%
9,CCc1ccccc1NC(=O)C1=CC(c2cccs2)=NS(=O)(=O)N1C,0.802%
10,O=C(CN1CCN(c2ccccn2)CC1)Nc1ccccc1,11.4%
11,CN(C)c1ccc(/C=C/C(=O)c2c(O)c3ccccc3oc2=O)cc1,1.5%
12,CCCCNC(=O)N1CCOCCOCCN(C(=O)NCCCC)CCOCC1,-7.22%
13,Cc1cc(=O)[nH]c(NN=C(CC(C)C)CC(C)C)n1,12%
14,CCOC1CS(=O)(=O)CC1OCC (centres unmarked),8.8%
15,O=C(CSc1nc(=O)n2ccccc2n1)Nc1cccc2ccccc12,17.5%
16,O=S(=O)(Cc1ccccc1)Oc1ccccc1,11.5%
17,Cc1ccc(C(=O)OCC(=O)Nc2ccc3[nH]c(=O)[nH]c3c2)cc1[N+](=O)[O-],13.2%
18,COc1ccc(-c2cccc(C3CC=CC4C3C(=O)N(Cc3ccccc3)C4c3ccc4ccccc4c3)c2)cc1 (centres unmarked),8.62%
